# Measurements as given in the supplement of paper PMC5499739.
# In all, about 16,000 sequences were measured (“Z-score”: median about -0.37, highest 2% from about 3.1 on). This is one part of the list.
# Test system: RBM10 RRM1-ZnF-RRM2 (GST-tagged construct)
# Assay: RNAcompete 7-mer binding Z-score; higher = stronger binding preference
# Procedure: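 RNAcompete: 20 pmol GST-tagged RBM10 RNA-binding constructs were incubated with a designed RNA pool of about 241,000 sequences up to 41 nt (1.5 nmol) on glutathione beads for 30 min at 4 °C and washed. Bound RNAs were identified by microarray hybridisation. Each RNA 7-mer is scored by a one-sided Z-score of its enrichment, computed over probes that contain the 7-mer within longer pool sequences.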
row,Sequence,RNAcompete 7-mer binding Z-score
1,GUGUACA,0.527
2,CAUGAAC,-0.0197
3,AGUAGUC,-0.289
4,CAGCCGC,-0.53
5,ACUAGGA,0.742
6,CACCUGC,-0.825
7,GACAAUU,-0.439
8,AGAGCCU,-1.09
9,CGUGAUU,-0.435
10,AACUGUG,0.148
11,AACCACC,-0.632
12,AGUCAUG,0.0313
13,AAAACAC,-0.267
14,GGAGAUA,1.92
15,CGAGGGU,3.55
16,GUCAUUG,-0.235
17,ACAGAUG,0.468
18,GUGUAAA,0.607
19,CUUAGAU,-0.675
20,AAAAGCA,-0.0197
21,CUGCUGU,-0.799
22,CUUAUCA,-0.77
23,GGGCAAC,2.2

row,Sequence,RNAcompete 7-mer binding Z-score
1,AAUCGUU,-0.635
2,AACCCAC,-0.69
3,UUAUUGA,-0.355
4,CCGGGAG,0.854
5,UAAAAGC,-0.515
6,AAGCACA,-0.351
7,UAGGGCC,0.796
8,GCUCGCG,-0.475
9,AUGUAGU,0.326
10,GACAGAA,0.25
11,GGCUCGU,-0.0925
12,GAACGUG,0.643
13,AAAAAAC,-0.271
14,CCCCAUA,-0.541
15,AGAUUCG,0.0459
16,CUUCGCA,-0.69
17,CUCACAU,-0.81
18,CACUCUC,-0.854
19,CAGAGGC,0.774
20,CCACGGA,0.235
21,CGUGUAU,-0.154
22,CGACAAG,0.17
23,GUUCCAC,-0.482

row,Sequence,RNAcompete 7-mer binding Z-score
1,AGAGUCG,0.865
2,AGAACGC,-0.723
3,AAUGUGG,2.07
4,CAGGAUU,0.574
5,GUGUCGC,0.0277
6,GCAGGGU,3.35
7,CAUCGAU,-0.522
8,ACACACU,-0.683
9,GUUGGCA,1.1
10,AUCCUGC,-1.01
11,GUGUGCU,0.151
12,AAGACUG,0.00944
13,AUUAGGG,2.72
14,CAACCAG,-0.0925
15,ACAGCCC,-0.701
16,ACUGUUC,-0.934
17,CCCAUAG,-0.628
18,CGUGCGU,-0.0379
19,CAGGGCA,2.55
20,ACAAGGG,3.52
21,GAAUUGC,0.0641
22,AUAUAGG,1.38
23,UGCUAUG,-0.42

row,Sequence,RNAcompete 7-mer binding Z-score
1,AUGCAGU,0.141
2,GAAGUGU,1.09
3,CAAAUGU,-0.311
4,UCACAAA,-0.486
5,AGCGCGG,1.04
6,AAGACGA,0.629
7,AGCCUUU,-0.985
8,CGACCCC,-0.719
9,UUUCACC,-0.792
10,GUACCCU,-0.482
11,GUGAGGU,2.97
12,UCAGGGU,1.23
13,AUGGCGA,1.92
14,AUUUAAG,-0.366
15,AUCGGCG,0.337
16,CUGGACC,-0.577
17,CAGUCAC,-0.431
18,CUGGGGG,1.81
19,GCCGUUA,-0.686
20,UGCCUAC,-0.661
21,AACUGGA,0.825
22,AACGUUU,-0.679
23,UUCUAUA,-0.697
